Experimental data from paper PMC11832919 (Nature Communications, 2025).

Assays:
[1] = target: human methemoglobin (coordinating oxidized heme) (human, UniProt P69905;P68871); assay: SAXS
[2] = target: human oxyhemoglobin (coordinating reduced heme) (human, UniProt P69905;P68871); assay: SAXS

B1: StrepTag II-IsdB (Staphylococcus aureus iron-regulated surface determinant protein B) (natural protein)
chain: not shown
- stoichiometry N [1]: 2 IsdB per metHb dimer
- stoichiometry N [2]: 2 IsdB per oxyHb tetramer
